Here are results for 55 compounds from publication PMC4336329 (PLoS ONE, 2015).

Screen size: about 310,000 compounds; about 2,200 (0.71%) showed an effect of 50% or more. Effects have a minus sign here. The list shows a part of the results.

In the experiment the target is human ether-à-go-go-related gene (hERG) potassium channel (human, UniProt Q12809). The experiment is described as follows: primary screen, population patch clamp on CHO cells stably expressing hERG.
human ether-à-go-go-related gene (hERG) potassium channel, sequence (Q12809 whole entry, looked up): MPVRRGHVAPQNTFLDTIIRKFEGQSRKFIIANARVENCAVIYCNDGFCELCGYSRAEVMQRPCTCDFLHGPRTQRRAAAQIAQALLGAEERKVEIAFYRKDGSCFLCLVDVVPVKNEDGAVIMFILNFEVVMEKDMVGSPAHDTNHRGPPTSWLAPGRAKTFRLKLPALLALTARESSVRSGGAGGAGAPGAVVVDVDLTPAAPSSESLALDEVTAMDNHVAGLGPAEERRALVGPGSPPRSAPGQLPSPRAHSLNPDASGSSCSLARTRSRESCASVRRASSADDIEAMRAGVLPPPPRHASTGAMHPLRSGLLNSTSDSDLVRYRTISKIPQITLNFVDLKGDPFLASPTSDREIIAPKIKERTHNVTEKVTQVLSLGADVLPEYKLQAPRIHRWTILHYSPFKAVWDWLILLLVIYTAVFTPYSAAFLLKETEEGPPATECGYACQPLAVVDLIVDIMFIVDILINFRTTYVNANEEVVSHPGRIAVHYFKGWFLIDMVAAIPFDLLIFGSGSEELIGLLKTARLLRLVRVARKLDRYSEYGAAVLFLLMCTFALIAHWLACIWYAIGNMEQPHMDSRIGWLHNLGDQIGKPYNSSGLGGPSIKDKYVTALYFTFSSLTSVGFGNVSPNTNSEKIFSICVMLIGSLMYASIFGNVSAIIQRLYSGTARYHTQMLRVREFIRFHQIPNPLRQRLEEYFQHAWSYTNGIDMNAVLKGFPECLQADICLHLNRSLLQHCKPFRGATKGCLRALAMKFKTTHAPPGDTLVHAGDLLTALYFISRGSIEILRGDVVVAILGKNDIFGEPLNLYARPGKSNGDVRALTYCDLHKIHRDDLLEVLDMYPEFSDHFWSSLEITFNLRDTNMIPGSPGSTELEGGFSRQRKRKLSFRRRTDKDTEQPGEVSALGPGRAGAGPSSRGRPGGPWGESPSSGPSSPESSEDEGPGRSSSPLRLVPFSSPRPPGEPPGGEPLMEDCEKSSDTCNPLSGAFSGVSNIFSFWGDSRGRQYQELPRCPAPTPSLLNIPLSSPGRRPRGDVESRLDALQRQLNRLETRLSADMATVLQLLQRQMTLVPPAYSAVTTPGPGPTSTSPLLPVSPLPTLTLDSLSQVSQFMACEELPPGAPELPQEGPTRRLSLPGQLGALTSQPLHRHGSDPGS
Turning to `C1CCC(OCCN2CCN(CCOC3CCCCC3)CC2)CC1`, the “hERG current change (%, negative = inhibition) at 1uM” value was 4.4%. With `Nc1cc(=O)[nH]n1C1CCCC1` the figure was 21.4%. To `COc1ccccc1N1CC(O)=C(c2nc3ccccc3s2)C1=N` belongs 5.15%.

As for `Cc1cc(N2CCC(C(=O)NC3CC3)CC2)nc(-c2ccccc2)n1`, the “hERG current change (%, negative = inhibition) at 1uM” value is listed as -4.67%. To `C=CCN1C(=O)N/C(=C/c2ccc(C)o2)C1=O` belongs -2.88%; to `CCCCN(C)C(=O)c1cccc(OC2CCN(CC(C)(C)C)CC2)c1`, 4.04%; to `CC(=O)C(Sc1nccc(-c2cccs2)n1)C(C)=O`, -1.67%. To `CCCCN(CCCC)CCNC(=O)c1cn(C)c2ccc(S(=O)(=O)N3CCCC3)cc2c1=O` belongs -2.94%; to `O=C(C1CCN(S(=O)(=O)c2cccs2)CC1)N1CCc2ccccc2C1`, 9.76%; to `COC(=O)C1C(c2ccc(N(C)C)cc2)C(C(=O)OC)S(=O)(=O)CS1(=O)=O` (stereo not shown), 5.71%. In the case of `COC(=O)c1ccc(OCC(=O)c2ccccc2)cc1`, the “hERG current change (%, negative = inhibition) at 1uM” value is recorded as -0.942%. With `CCC1C/C(=C/c2cccs2)C(=O)/C(=C/c2cccs2)C1` (stereo not shown) the figure was 4.96%; with `COc1cc(C(=S)N2CCOCC2)ccc1OS(=O)(=O)c1ccc(C)cc1`, 7.86%; with `COc1ccc(Br)cc1CNC(=O)Nc1cccs1`, -8.11%. To `CCN(CC)C(=O)c1sc(NC(=O)Cc2ccc(OC)cc2)c(C#N)c1C` belongs 3.46%. To `CC(=O)Nc1ccc(C(=O)CSc2nnc3scc(-c4ccccc4)n23)cc1` belongs 3.91%. Consider `CCOC(=O)c1c(NC(=O)CSc2ncnc3ccccc23)sc(C)c1C`, for which the “hERG current change (%, negative = inhibition) at 1uM” value was found to be 4.59%. With `CC(=O)c1ccc(N2CCN(C(=O)Cc3ccccc3)CC2)c(F)c1` the figure was 4.43%; with `COc1ccccc1CN1CCCCCC1.O=C(O)C(=O)O`, 17.4%. `O=[N+]([O-])c1cc(C(F)(F)F)ccc1-n1nnc2ccccc21`: the “hERG current change (%, negative = inhibition) at 1uM” value was found to be 9.07%. `O=C(c1ccc(CNS(=O)(=O)c2ccccc2)cc1)N1CCN(c2ccccn2)CC1`: the “hERG current change (%, negative = inhibition) at 1uM” value is reported as -2.53%.

For the compound `CCN(CC)CCN1C(=O)C(=O)/C(=C(/O)c2ccncc2)C1c1ccccc1F` (stereo not shown), the “hERG current change (%, negative = inhibition) at 1uM” value turned out to be 8.92%. To `O=C(Oc1cccnc1)c1cc2ccccc2oc1=O` belongs -0.328%. With `CC(=O)n1c2ccccc2c2nc3ccccc3nc21` the figure was 8.67%; with `Cc1nn(-c2ccccc2)c(C)c1NC(=O)COC(=O)c1cc(Br)ccc1O`, 14.9%; with `CC(C)(C)NC(=O)CSc1nc(-c2ccc(F)cc2)cs1`, 22.3%.

As for `COc1ccc(O)c(C(=O)c2cnn(-c3ccccc3)c2)c1`, the “hERG current change (%, negative = inhibition) at 1uM” value came out at 12.1%. As to `O=C(Nc1cc(S(=O)(=O)N2CCCCC2)ccc1N1CCCCC1)c1ccncc1`, the “hERG current change (%, negative = inhibition) at 1uM” value is -7.8%. To `CC1(C)CC(=O)C2=C(C1)OC(/N=C/N1CCOCC1)=C(C#N)C2c1ccccc1` (stereo not shown) belongs 2.73%; to `CCOc1cc(S(=O)(=O)NCc2ccccc2)ccc1Br`, 13.9%; to `CNC(=O)CCc1[nH]c2ccccc2c1Sc1ccccc1`, 13.7%. Take `C=CCn1cc(C(=O)OC)c(=O)c2cc(S(=O)(=O)N3CCCCCC3)ccc21`: the “hERG current change (%, negative = inhibition) at 1uM” value turned out to be 25.8%.

Consider `CCCCC(CC)COC(=O)C(C#N)=C(c1ccccc1)c1ccccc1` (stereo not shown), for which the “hERG current change (%, negative = inhibition) at 1uM” value is 14.3%.

`COC(=O)C1=C(C)N(CCc2c[nH]c3ccccc23)C(=O)/C1=C\N(C)C`: the “hERG current change (%, negative = inhibition) at 1uM” value amounted to 22%. To `O=C(CN1CCN(S(=O)(=O)c2ccc(Br)cc2)CC1)N/N=C/c1cccnc1` belongs -1.72%; to `COc1cccc(NC(=O)c2ccc3c(c2)C(=O)N(CC2CCCO2)C3=O)c1` (stereo not shown), 14.2%. With `O=C(NCCCN1CCCC1=O)C(=O)NCC1OCCCN1S(=O)(=O)c1cc(F)ccc1F` (stereo not shown) the figure was 22.4%. To `C/C(=N\NC(=O)c1nnn(-c2nonc2N)c1CN1CCCCC1)c1ccccc1O.Cl` belongs 9.22%; to `O=C(C(=O)N1CCN(c2cccc(Cl)c2)CC1)c1cn(CC(=O)N2CCOCC2)c2ccccc12`, 0.532%. Turning to `CCc1cc(=O)oc2cc(C)cc(OCC(=O)NC(Cc3ccc(Cl)cc3)C(=O)O)c12` (stereo not shown), the “hERG current change (%, negative = inhibition) at 1uM” value is listed as -6.76%. To `CCCOc1ccccc1C1NC(=O)NC(C)=C1C(=O)OCCOC` (stereo not shown) belongs 16.1%; to `CC(=O)Oc1ccccc1C(=O)Nc1ccccc1C(=O)N1CCCC1`, 18.7%; to `CCn1cc([N+](=O)[O-])c(=O)c2cc(F)c(N3CCOCC3)cc21`, 18.3%. Regarding `Cc1ccc(S(=O)(=O)N(CC(=O)NN=C2CCN(C)CC2)c2ccc(C(C)C)cc2)cc1`, the “hERG current change (%, negative = inhibition) at 1uM” value turned out to be 2.72%. To `CN(c1ccccc1)S(=O)(=O)c1ccc(Cl)c(C(=O)OCC(=O)NCc2ccco2)c1` belongs 10.7%; to `CCC(C)Nc1nc(OC(C(F)(F)F)C(F)(F)F)nc(OC(C(F)(F)F)C(F)(F)F)n1` (stereo not shown), 6.04%. As for `COc1ccc(-c2nc3c4ccccc4ccn3c2CN2CCOCC2)cc1OC.Cl`, the “hERG current change (%, negative = inhibition) at 1uM” value turned out to be 2.91%. To `Cc1ccsc1C(=O)C1CCCN(Cc2c(C)nn(C(C)C)c2C)C1` (stereo not shown) belongs 9.56%.

As for `COc1ccc(S(=O)(=O)N2CCCN(S(=O)(=O)c3ccc(OC)c(C)c3)CC2)cc1C`, the “hERG current change (%, negative = inhibition) at 1uM” value is 3.77%.

`CC(CO)(CO)NCc1ccc(-c2ccccc2)cc1.Cl`: the “hERG current change (%, negative = inhibition) at 1uM” value was 9.61%. `O=C(CN1CCCCC1)N1c2ccccc2CCc2ccccc21`: the “hERG current change (%, negative = inhibition) at 1uM” value is 11.7%. `COc1ccc(C(=O)c2cn[nH]c2-c2cc(C)ccc2O)cc1`: the “hERG current change (%, negative = inhibition) at 1uM” value is given as 12.4%.

As to `O=C(Cn1cnc2ccccc2c1=O)Nc1cccc(S(=O)(=O)N2CCCCC2)c1`, the “hERG current change (%, negative = inhibition) at 1uM” value was 8.05%. `CCCn1c(N)c(N2CCCCC2)c(=O)n(CC(=O)Nc2ccc(OC(F)(F)F)cc2)c1=O`: the “hERG current change (%, negative = inhibition) at 1uM” value is 6.04%. To `OC(CN1CCCCC1)Cn1c2ccccc2c2cc(Br)ccc21` (stereo not shown) belongs 5.76%.
